The list shows a part of the results. At the low end of the ranking the order means little.

This experiment deals with GST-SBP-SLBP (stem-loop binding protein) (UniProt Q14493). Put plainly: targeted RNA Bind-n-Seq.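 Further: DESeq read counts versus GST-SBP nonspecific binding control pulldown.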 To be noted: RBNS binding buffer: 25 mM Tris pH 7.5, 150 mM KCl, 3 mM MgCl2, 0.1% Tween, 0.5 mg/mL BSA, 1 mM DTT; 27 nM protein, 750 pM RNA pool; temperature not stated; high values mean tight binding.
Take “GGUCACGUCUCAAUCAACUCAUAAGAGGGGGGGAAAACCCCUUUGCCCUCACCAUCAACAGCUCGCAGUCAAG”: the binding signal (log2 fold change) was -0.156.
Regarding “GGUCACGUCUCAAUCAACUCUACUUCCAGGGAAACCCCUGGCAAACUCAACAGCUCGCAGUCAAG”, the binding signal (log2 fold change) was 0.0186.
As for “GGUCACGUCUCAAUCAACUCCACAGAGGGGGGGAAAACCCCUUUGCCCUCCAUAUCAACAGCUCGCAGUCAAG”, the binding signal (log2 fold change) worked out at 0.437.
For “GGUCACGUCUCAAUCAACUCUAUCCCCAGGGAAACCCCUGGCAUUUUCAACAGCUCGCAGUCAAG”, the binding signal (log2 fold change) is -0.0515.
With “GGUCACGUCUCAAUCAACUCCUAAGAGGGGGGGAAAACCCCUUUGCCCUCAACUUCAACAGCUCGCAGUCAAG”, the binding signal (log2 fold change) was -0.152.
With “GGUCACGUCUCAAUCAACUCUUUCUCCAGGGAAAACCCUGGCUAUGUCAACAGCUCGCAGUCAAG”, the binding signal (log2 fold change) was -0.12.
Regarding “GGUCACGUCUCAAUCAACUCAACUCCCAGGGAAAACCCUGGCAAACUCAACAGCUCGCAGUCAAG”, the binding signal (log2 fold change) was found to be 0.165.
The figure for “GGUCACGUCUCAAUCAACUCAUUUUCCAGGGAAAUCCCUGGUAUAUUCAACAGCUCGCAGUCAAG” is -0.275.
As to “GGUCACGUCUCAAUCAACUCAUUCUCCAGGGAAAACCCUGGCUUAGUCAACAGCUCGCAGUCAAG”, the binding signal (log2 fold change) is -0.19.
On to “GGUCACGUCUCAAUCAACUCUUCCUCAGGAGUUUACUCCUGUUUUUUCAACAGCUCGCAGUCAAG”, for which the binding signal (log2 fold change) was -0.103.
The figure for “GGUCACGUCUCAAUCAACUCAGUCCCAGGAGUUUACUCCUGUUAAUUCAACAGCUCGCAGUCAAG” is 0.0944; for “GGUCACGUCUCAAUCAACUCAUCGCCAGGAGUUUGCUCCUGCUUAUUCAACAGCUCGCAGUCAAG” it is 0.155; for “GGUCACGUCUCAAUCAACUCUAUCUCAGGAGUUUACUCCUGUAUACUCAACAGCUCGCAGUCAAG” it is 0.284.
For the sequence “GGUCACGUCUCAAUCAACUCAUUCUCAGGAGUUUUCUCCUGCAUUUUCAACAGCUCGCAGUCAAG”, the binding signal (log2 fold change) was 0.11.
Take “GGUCACGUCUCAAUCAACUCAUCUCCAGGAGUUUCCUCCUGCUUACUCAACAGCUCGCAGUCAAG”: the binding signal (log2 fold change) was 0.123.
As for “GGUCACGUCUCAAUCAACUCUAAAGAGGGGGGGAAAACCCCUUUACCCUCAAAAUCAACAGCUCGCAGUCAAG”, the binding signal (log2 fold change) came out at 0.0957.
As for “GGUCACGUCUCAAUCAACUCAGUUUCCAGGGAAAUCCCUGGCAUAUUCAACAGCUCGCAGUCAAG”, the binding signal (log2 fold change) was -0.00908.
As to “GGUCACGUCUCAAUCAACUCUUCCUCCAGGGAAACCCCUGGCAAAUUCAACAGCUCGCAGUCAAG”, the binding signal (log2 fold change) is -0.119.
Consider “GGUCACGUCUCAAUCAACUCUUUUUCCAGGGAAACCCCUGGUUAUCUCAACAGCUCGCAGUCAAG”, for which the binding signal (log2 fold change) was -0.0792.
As for “GGUCACGUCUCAAUCAACUCGUUUUCAGGAGUUUUCUCCUGCUAUUUCAACAGCUCGCAGUCAAG”, the binding signal (log2 fold change) was -0.0347.
For the sequence “GGUCACGUCUCAAUCAACUCAACUUCCAGGGAAAGCCCUGGUAAUUUCAACAGCUCGCAGUCAAG”, the binding signal (log2 fold change) came to 0.00373.
Then “GGUCACGUCUCAAUCAACUCAGUUCCCAGGGAAAUCCCUGGCAUUUUCAACAGCUCGCAGUCAAG”, with -0.126.
As for “GGUCACGUCUCAAUCAACUCAUACGAGGGGGGGAAAACCCCUUUACCCUCAAACUCAACAGCUCGCAGUCAAG”, the binding signal (log2 fold change) was 0.382.
“GGUCACGUCUCAAUCAACUCAAUCUCCAGGGAAAUCCCUGGUAUUCUCAACAGCUCGCAGUCAAG”: the binding signal (log2 fold change) came to 0.036.
With “GGUCACGUCUCAAUCAACUCUUCUCCCAGGGAAAACCCUGGCUUAUUCAACAGCUCGCAGUCAAG”, the binding signal (log2 fold change) is -0.247.
Turning to “GGUCACGUCUCAAUCAACUCUAUCCCCAGGGAAAUCCCUGGCAUAUUCAACAGCUCGCAGUCAAG”, the binding signal (log2 fold change) turned out to be 0.0134.
In the case of “GGUCACGUCUCAAUCAACUCAUUAGAGGGGGGGAAAACCCCUUUACCCUCAUCCUCAACAGCUCGCAGUCAAG”, the binding signal (log2 fold change) was -0.142.
Turning to “GGUCACGUCUCAAUCAACUCAAUGUCAGGAGUUUUCUCCUGUUUUUUCAACAGCUCGCAGUCAAG”, the binding signal (log2 fold change) was found to be 0.102.
For the sequence “GGUCACGUCUCAAUCAACUCAUCCCCCAGGGAAAGCCCUGGUUUAUUCAACAGCUCGCAGUCAAG”, the binding signal (log2 fold change) was 0.0478.
Take “GGUCACGUCUCAAUCAACUCAUCUCCAGGAGUUUUCUCCUGCUAAUUCAACAGCUCGCAGUCAAG”: the binding signal (log2 fold change) was -0.0751.
Regarding “GGUCACGUCUCAAUCAACUCAACUUCCAGGGAAAACCCUGGCAUUUUCAACAGCUCGCAGUCAAG”, the binding signal (log2 fold change) was 0.305.
In the case of “GGUCACGUCUCAAUCAACUCAACUCCCAGGGAAACCCCUGGUUAUCUCAACAGCUCGCAGUCAAG”, the binding signal (log2 fold change) came out at 0.121.
Turning to “GGUCACGUCUCAAUCAACUCAGUCCCCAGGGAAAGCCCUGGUAAAUUCAACAGCUCGCAGUCAAG”, the binding signal (log2 fold change) was -0.347.
On to “GGUCACGUCUCAAUCAACUCAUCUCCCAGGGAAAACCCUGGUUUAUUCAACAGCUCGCAGUCAAG”, for which the binding signal (log2 fold change) was -0.0821.
For “GGUCACGUCUCAAUCAACUCAACUCCAGGAGUUUCCUCCUGUAUAUUCAACAGCUCGCAGUCAAG”, the binding signal (log2 fold change) is -0.0836.
Then “GGUCACGUCUCAAUCAACUCAUCGUCCAGGGAAACCCCUGGUUAUCUCAACAGCUCGCAGUCAAG”, with 0.0188; and “GGUCACGUCUCAAUCAACUCAUCUCCCAGGGAAAACCCUGGUAUUCUCAACAGCUCGCAGUCAAG”, with -0.0413.
In the case of “GGUCACGUCUCAAUCAACUCAUUUCCAGGAGUUUACUCCUGUUUACUCAACAGCUCGCAGUCAAG”, the binding signal (log2 fold change) is -0.0247.
The figure for “GGUCACGUCUCAAUCAACUCUAUCCCCAGGGAAAUCCCUGGUAAAUUCAACAGCUCGCAGUCAAG” is 0.143; for “GGUCACGUCUCAAUCAACUCAACUCCAGGAGUUUCCUCCUGCUAAUUCAACAGCUCGCAGUCAAG” it is 0.0484.
On to “GGUCACGUCUCAAUCAACUCUAUCCCAGGAGUUUUCUCCUGCUAACUCAACAGCUCGCAGUCAAG”, for which the binding signal (log2 fold change) worked out at 0.179.
Take “GGUCACGUCUCAAUCAACUCAUUCCCCAGGGAAAGCCCUGGUAAUUUCAACAGCUCGCAGUCAAG”: the binding signal (log2 fold change) was -0.0575.
Consider “GGUCACGUCUCAAUCAACUCUAGUCCAGGAGUUUUCUCCUGCUUUCUCAACAGCUCGCAGUCAAG”, for which the binding signal (log2 fold change) is -0.168.
